Data published in PubChem BioAssay AID1460 (National Center for Advancing Translational Sciences (NCATS), 2008).
Hit rate of the full screen: of about 270,000 compounds, about 5,800 (2.1%) were called active. The shares of active, inactive and inconclusive entries below differ from those in the screen. The call rests on the fitted dose curve; in most records, active means well fitted inhibition curve with a large enough effect; inconclusive means small, poorly fitted or top-dose-only effect; inactive means flat fitted curve, though single readings scatter. Where the call is inconclusive, the potency comes from a doubtful curve fit.

biological target: Microtubule-associated protein tau (Homo sapiens) (UniProt P10636); test: qHTS for Inhibitors of Tau Fibril Formation, Thioflavin T Binding; conditions: recombinant tau K18 P301L (four-repeat tau fragment), heparin-induced fibrillization, ThT fluorescence; series mostly up to 57.4 µM; activity, negative = inhibition: at the top concentration; further: nearly all actives have a fitted effect of over 55% in size
Method in brief: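 Aggregation was driven by heparin (20 uM final) acting on recombinant tau […] bearing P301L in 100 mM sodium acetate pH 7; fibrils were detected with Thioflavin T.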
On the % scale 0 is the no-effect control and ±100 the full control effect; potency means the concentration at half of the fitted maximal effect; tags describe the fitted curve by direction and shape.

Chain of UniProt P10636 (P10636 whole entry, looked up, the tested form may be a part): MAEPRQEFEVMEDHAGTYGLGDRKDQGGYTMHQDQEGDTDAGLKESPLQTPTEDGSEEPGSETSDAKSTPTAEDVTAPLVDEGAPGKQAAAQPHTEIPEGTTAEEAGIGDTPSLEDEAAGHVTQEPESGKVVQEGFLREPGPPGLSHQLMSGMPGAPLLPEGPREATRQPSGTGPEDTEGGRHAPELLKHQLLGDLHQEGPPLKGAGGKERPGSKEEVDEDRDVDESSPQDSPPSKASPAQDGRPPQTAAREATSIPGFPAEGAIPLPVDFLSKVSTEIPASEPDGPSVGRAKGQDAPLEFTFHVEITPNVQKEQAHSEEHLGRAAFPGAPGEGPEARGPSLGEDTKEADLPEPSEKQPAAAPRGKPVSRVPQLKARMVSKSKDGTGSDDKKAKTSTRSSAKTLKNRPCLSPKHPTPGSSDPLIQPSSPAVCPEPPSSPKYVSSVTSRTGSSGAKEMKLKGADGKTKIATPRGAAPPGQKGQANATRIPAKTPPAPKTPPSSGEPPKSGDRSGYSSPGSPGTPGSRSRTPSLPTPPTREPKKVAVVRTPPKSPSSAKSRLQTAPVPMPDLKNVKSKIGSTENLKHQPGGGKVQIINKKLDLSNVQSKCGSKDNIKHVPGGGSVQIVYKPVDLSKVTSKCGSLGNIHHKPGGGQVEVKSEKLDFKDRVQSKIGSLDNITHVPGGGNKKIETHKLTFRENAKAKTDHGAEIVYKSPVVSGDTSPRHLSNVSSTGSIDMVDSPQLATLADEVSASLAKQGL

SMILES | Potency | activity, negative = inhibition
COc1cc(/C=C2\SC(=N)N(c3ccc(F)cc3)C2=O)ccc1O | inconclusive: 2.51 µM [inhibitor, full curve] | –
CCc1ccc(C(=O)c2cnc3ccc(OC)cc3c2N2CCN(CC)CC2)cc1 | – | inactive: -9.9%
CC(C)n1c(=S)[nH]c2scc(-c3cccs3)c2c1=O | inconclusive: 12.6 µM [inhibitor, partial curve] | –
O=C1C=CCC(/C=C/c2ccccc2)O1 (centres undefined) | inconclusive: 31.6 µM [inhibitor, partial curve] | –
O=C(N/N=C/C1CC2C=CC1C2)c1ccccc1O (centres undefined) | – | inactive: -3.34%
Cn1cnnc1SCc1ccccc1 | – | inactive: -0.289%
CCN(CC)S(=O)(=O)c1ccc2c(c1)N(CC(=O)N1CCN(c3ccccc3F)CC1)C(=O)CO2 | – | inactive: 9.77%
COc1cc(C2C(C(C)=O)=C(O)C(=O)N2CCN2CCOCC2)ccc1O (centres undefined) | – | inactive: -13.1%
COc1cc(Nc2nc3ccccc3c3nnc(C)n23)cc(OC)c1 | – | inactive: -6.62%
COc1cc(C)c2c(=O)cc(-c3ccccc3)oc2c1 | inconclusive: 14.1 µM [inhibitor, partial curve] | –
COc1ccc([N+](=O)[O-])cc1C(=O)Nc1ccc(Cc2ccncc2)cc1 | – | inactive: -20%
Nc1cccc2nsnc12 | active: 28.2 µM | –
CCCCN1CCCc2cc(CN(CCCN3CCOCC3)C(=O)Nc3ccc(OCC)cc3)ccc21 | inconclusive: 12.6 µM [inhibitor, partial curve] | –
Cc1ccc(-n2c(Cc3cccn3C)nnc2SCC(=O)NCc2ccco2)cc1 | – | inactive: -0.693%
COc1ccc(NC(=S)Nc2ccc3snnc3c2)cc1 | – | inactive: -16.1%
CN(C)c1ccnc2sc(C(=O)c3ccccc3)c(N)c12 | – | inactive: -18.6%
Cc1ccc(CNC(=O)c2ccc(-n3cnc4cccnc43)cc2)cc1 | inconclusive: 2.51 µM [activator, single point] | –
Cc1cc(C(=O)N/N=C\C(Br)=C\c2ccccc2)c(C)o1 | inconclusive: 11.2 µM [inhibitor, partial curve] | –
O=C(c1ccco1)N1CCN(c2nc(-c3ccc(F)cc3)cs2)CC1 | inconclusive: 14.1 µM [inhibitor, partial curve] | –
Cc1ccc(-c2nc(-c3cc4cccc(OCc5cccc(C)c5)c4oc3=O)no2)cc1 | inconclusive: 6.31 µM [inhibitor, partial curve, poor fit] | –
O=C(Nc1cccc(NC(=O)c2cccs2)c1)c1cccnc1 | – | inactive: -5.38%
COc1cccc(NC(=O)c2ccc(NCCCN3CC(C)CC(C)C3)c([N+](=O)[O-])c2)c1 (centres undefined) | inconclusive: 17.8 µM [inhibitor, partial curve] | –
COCCn1c(=O)[nH]c2cc(C(=O)NCCN3CCN(c4ccccc4)CC3)ccc2c1=O | inconclusive: 31.6 µM [inhibitor, single point] | –
Oc1c(C=NCc2ccncc2)sc2ccccc12 | inconclusive: 20 µM [inhibitor, partial curve] | –
CCN(CC)c1ccc(C(=O)N2CCC(c3c[nH]c4ccccc34)(c3c[nH]c4ccccc34)CC2)cc1 | – | inactive: 3.86%

SMILES | Potency | activity, negative = inhibition
CCOC(=O)c1ccc(NC(=O)c2ncn(-c3ccccc3)n2)cc1 | inconclusive: 0.178 µM [inhibitor, full curve] | –
Cc1csc(=Nc2c(C)n(C)n(-c3ccccc3)c2=O)n1Cc1ccccc1 | – | inactive: -11.4%
COc1ccc(-c2[nH]nc3c2C(c2ccc(OC(=O)N4CCOCC4)cc2)C(C#N)=C(N)O3)cc1 (centres undefined) | inconclusive: 28.2 µM [inhibitor, partial curve] | –
CCc1nc2c(cnn2-c2ccc(F)cc2)c(=O)n1-c1ccc(N2CCC(C)CC2)cc1 | inconclusive: 12.6 µM [inhibitor, partial curve, poor fit] | –
O=C1CN(C(=O)CNCc2ccccc2)c2ccccc2N1 | – | inactive: -5.59%
CCN(CCC(=O)Nc1cc(OC)cc(OC)c1)Cc1ccccc1 | – | inactive: -2.66%
CC1=CN2C(=N)/C(=C/c3ccc([N+](=O)[O-])o3)C(=O)N=C2S1 | active: 12.6 µM | –
S=C1NC[C@H](CC2CCCCC2)N1CC1CCCCC1 | inconclusive: 2 µM [inhibitor, single point] | –
O=C(Cc1ccccc1)Nc1sc2c(c1C(=O)Nc1ccc(Cl)cc1)CCCC2 | active: 8.91 µM | –
Cc1cccc(NC(=O)/C=C/c2ccc3c(c2)OCO3)n1 | inconclusive: 12.6 µM [inhibitor, partial curve] | –
CN1CCN(C2=NC(=O)/C(=C/c3cn[nH]c3-c3ccccc3)S2)CC1 | – | inactive: -2.37%
O=C(NCCc1csc(-c2cccc(F)c2)n1)c1cccs1 | – | inactive: -6.26%
COc1ccccc1Nc1nc(NCc2ccco2)nc(N)c1[N+](=O)[O-] | inconclusive: 11.2 µM [inhibitor, partial curve] | –
Cc1cnc(C(=O)OCC(=O)Nc2oc(-c3ccccc3)c(-c3ccccc3)c2C#N)cn1 | inconclusive: 28.2 µM [inhibitor, single point] | –
CCn1cc(/C=C/C(=O)c2ccc(O)cc2)c(C)n1 | inconclusive: 25.1 µM [inhibitor, single point] | –
O=C(COc1ccccc1)N/N=C/c1ccc([N+](=O)[O-])o1 | inconclusive: 12.6 µM [inhibitor, partial curve] | –
Oc1ccc(CN2CCCc3ccccc32)c2cccnc12 | inconclusive: 15.8 µM [inhibitor, partial curve] | –
CCN(CC)c1ccc(NC(=O)COc2ccccc2C#N)cc1S(=O)(=O)Nc1ccc(OC)cc1 | – | inactive: -9.87%
O=C(/C=C/Sc1ccccc1)c1ccccc1 | inconclusive: 25.1 µM [inhibitor, partial curve] | –
CCOc1ccc(CC2S/C(=N/N=C/c3ccco3)NC2=O)cc1 (centres undefined) | – | inactive: 2.08%
Cc1cc(C)cc(OC(=O)c2snnc2C)c1 | inconclusive: 20 µM [inhibitor, partial curve] | –
COC(=O)CSC1=C(C#N)C(c2ccc(Cl)cc2)C(C(=O)OC)C(=O)N1 (centres undefined) | – | inactive: -1.46%
CN(C)/C=C1\Oc2ccc3ccccc3c2C1=O | inconclusive: 22.4 µM [inhibitor, partial curve, poor fit] | –
COc1ccc(N/N=C(/C(C)=O)N2CCCc3ccccc32)cc1 | inconclusive: 4.47 µM [inhibitor, partial curve] | –
